Assay results published in PubChem BioAssay AID296 (DTP/NCI, 2004).
Results filed as inconclusive are left out. For part of its entries the source gives two or more results. They are shown here; other results are not. An entry can have further records. Results that share an entry are repeated measurements across runs, samples, wells, individuals or studies. Marks such as (2×) give the number of equal values in this list.

Tested on: MX-1 breast xenograft, nude mice, tumor weight T/C
Assay: NCI In Vivo Anticancer Drug Screen. Data for tumor model Human Mammary Carcinoma MX-1 Xenograft (intrarenal inoculation) in NU/NU Swiss (nude) mice
Details: endpoint: mean tumor weight change, higher = larger tumour
Protocol: The antitumor activity of compounds was measured in mice bearing transplantable tumors. Survival or tumor size were measured and the results are expressed as the measurement made in the treated group (T) divided by the measurement made in the vehicle treated control group (C). The tumor model used in this assay is Human Mammary Carcinoma MX-1 Xenograft (intrarenal inoculation) in NU/NU Swiss (nude) mice

[1] = dose: 0.13 mg/kg/injection, schedule: Q01DX010 (sc), vehicle: saline
[2] = dose: 0.25 mg/kg/injection, schedule: Q01DX010 (sc), vehicle: saline
[3] = dose: 2.0 mg/kg/injection, schedule: Q01DX010 (sc), vehicle: saline
[4] = dose: 4.0 mg/kg/injection, schedule: Q01DX010 (sc), vehicle: saline
[5] = dose: 16.0 mg/kg/injection, schedule: Q01DX010 (sc), vehicle: saline
[6] = dose: 200.0 mg/kg/injection, schedule: Q01DX010 (sc), vehicle: Klucel (hydroxypropylcellulose) (HPC)
[7] = dose: 100.0 mg/kg/injection, schedule: Q04DX003 (sc), vehicle: saline
[8] = dose: 37.5 mg/kg/injection, schedule: Q04DX003 (sc), vehicle: saline

For `COc1cc2cc(c1Cl)N(C)C(=O)CC(OC(=O)CC(C)C)C1(C)OC1C(C)C1CC(O)(NC(=O)O1)C(OC)/C=C/C=C(C)C2` (centres undefined), the T/C (dose: 50.0 micrograms/kg/injection, schedule: Q01DX010 (sc), vehicle: saline + alcohol) was 15 % of control and 85 % of control.

`O=C(O)CCCc1ccc(N(CCCl)CCCl)cc1` was tested, and the T/C (dose: 8.0 mg/kg/injection, schedule: Q01DX010 (sc), vehicle: saline with Tween-80) was -90 % of control and 2 % of control.

For `CSc1ncnc2c1ncn2C1OC(CO)C(O)C1O` (centres undefined), the T/C (dose: 37.5 mg/kg/injection, schedule: Q04DX003 (sc), vehicle: saline + alcohol) was 41 % of control and 82 % of control.

In the case of `C1CN1c1nc(N2CC2)nc(N2CC2)n1`, the T/C [1] is reported as -36 % of control and 9 % of control and the T/C [2] is reported as -65 % of control and -22 % of control.

With `N[C@H](C(=O)O)[C@@H]1CC(Cl)=NO1` the T/C [3] was -52 % of control and 1 % of control, the T/C [4] was -98 % of control, -84 % of control, -36 % of control and the T/C [5] was -92 % of control and 5 % of control.

In the case of `N[C@@H](Cc1ccc(N(CCCl)CCCl)cc1)C(=O)O`, the T/C (dose: 1.0 mg/kg/injection, schedule: Q01DX010 (ip), vehicle: saline) is reported as 4 % of control and 41 % of control, the T/C (dose: 1.0 mg/kg/injection, schedule: Q01DX010 (sc), vehicle: suspension in saline) is reported as -60 % of control, 1 % of control, 29 % of control and the T/C (dose: 1.5 mg/kg/injection, schedule: Q04DX003 (sc), vehicle: saline) is reported as -100 % of control, 5 % of control, 38 % of control. For the same compound, the T/C (dose: 2.0 mg/kg/injection, schedule: Q01DX010 (sc), vehicle: suspension in saline) was -100 % of control and 12 % of control, the T/C (dose: 3.0 mg/kg/injection, schedule: Q04DX003 (sc), vehicle: saline) was -94 % of control, -88 % of control, 4 % of control and the T/C (dose: 6.0 mg/kg/injection, schedule: Q04DX003 (sc), vehicle: saline) was -100 % of control, -79 % of control, -64 % of control.

`CCCC(=O)O` was tested, and the T/C (dose: 400.0 mg/kg/injection, schedule: Q01DX010 (sc), vehicle: saline) was 81 % of control and 109 % of control.

For `CC(=O)[O][Pb]([O]C(C)=O)([c]1ccccc1)[c]1ccccc1`, the T/C [6] was 52 % of control, 67 % of control, 97 % of control and the T/C (dose: 400.0 mg/kg/injection, schedule: Q01DX010 (sc), vehicle: Klucel (hydroxypropylcellulose) (HPC)) was -100 % of control and 96 % of control.

`OCCN1CCN(CC/C=C2/c3ccccc3Sc3ccc(Cl)cc32)CC1` was tested, and the T/C [7] was 21 % of control and 58 % of control.

`O=P1(NCCCl)OCCCN1CCCl` (centres undefined) was tested, and the T/C [8] was 3 % of control and 29 % of control and the T/C (dose: 75.0 mg/kg/injection, schedule: Q04DX003 (sc), vehicle: saline) was -100 % of control and 4 % of control.

For `CS(=O)(=O)OCCN(CCOS(C)(=O)=O)c1ccc(C=O)cc1`, the T/C (dose: 12.5 mg/kg/injection, schedule: Q01DX010 (sc), vehicle: saline) was -58 % of control and 38 % of control.

For `CC1(C)OC2C(COC(=O)c3ccc([N+](=O)[O-])cc3)OC(NC(=O)N(CCCl)N=O)C2O1` (centres undefined), the T/C (dose: 300.0 mg/kg/injection, schedule: Q04DX003 (sc), vehicle: saline with Tween-80) was 20 % of control (2×) and 55 % of control and the T/C (dose: 600.0 mg/kg/injection, schedule: Q04DX003 (sc), vehicle: saline with Tween-80) was 3 % of control, 41 % of control, 77 % of control.

In the case of `S=P(N1CC1)(N1CC1)N1CC1`, the T/C (dose: 1.0 mg/kg/injection, schedule: Q01DX010 (sc), vehicle: saline) is reported as -46 % of control and 9 % of control and the T/C [3] is reported as -79 % of control and -15 % of control.

In the case of `CC[C@]1(O)C[C@H]2CN(CCc3c([nH]c4ccccc34)[C@@](C(=O)OC)(c3cc4c(cc3OC)N(C=O)[C@H]3[C@@](O)(C(=O)OC)[C@H](OC(C)=O)[C@]5(CC)C=CCN6CC[C@]43[C@@H]65)C2)C1`, the T/C [1] is reported as -10 % of control and 18 % of control and the T/C [2] is reported as -100 % of control and -74 % of control.

In the case of `Cc1c(N)nc([C@H](CC(N)=O)NC[C@H](N)C(N)=O)nc1C(=O)N[C@H](C(=O)N[C@H](C)[C@@H](O)[C@H](C)C(=O)N[C@H](C(=O)NCCc1nc(-c2nc(C(=O)NCCC[S+](C)C)cs2)cs1)[C@@H](C)O)C(OC1OC(CO)C(O)C(O)C1OC1OC(CO)C(O)C(OC(N)=O)C1O)c1cnc[nH]1` (some centres undefined), the T/C (dose: 26.66 mg/kg/injection, schedule: Q04DX003 (sc), vehicle: saline) is reported as 72 % of control and 101 % of control.

For `COC12C(COC(N)=O)C3=C(C(=O)C(C)=C(N)C3=O)N1CC1C2N1C` (centres undefined), the T/C [4] was -80 % of control and -34 % of control.

For `COC(=O)Nc1cccc(-c2nc3ccc(NC(=O)OC)cc3c(=O)n2-c2ccccc2)c1`, the T/C (dose: 50.0 mg/kg/injection, schedule: Q01DX010 (sc), vehicle: Klucel (hydroxypropylcellulose) (HPC)) was 87 % of control and 158 % of control and the T/C [6] was 82 % of control and 108 % of control.

In the case of `O=NN(CCCl)C(=O)NCCCl`, the T/C [5] is reported as 10 % of control and 59 % of control, the T/C (dose: 30.0 mg/kg/injection, schedule: Q04DX003 (sc), vehicle: suspension in saline) is reported as 2 % of control and 28 % of control and the T/C (dose: 60.0 mg/kg/injection, schedule: Q04DX003 (sc), vehicle: suspension in saline) is reported as -51 % of control and 41 % of control.

`O=[N+]([O-])/C=C\c1ccc2c(c1)OCO2` was tested, and the T/C [6] was 102 % of control and 170 % of control.

`Cc1[nH]c(=O)[nH]c(=O)c1N(CCF)CCCl` was tested, and the T/C (dose: 40.0 mg/kg/injection, schedule: Q04DX003 (sc), vehicle: Klucel (hydroxypropylcellulose) (HPC)) was -100 % of control, 1 % of control, 11 % of control and the T/C (dose: 80.0 mg/kg/injection, schedule: Q04DX003 (sc), vehicle: Klucel (hydroxypropylcellulose) (HPC)) was -100 % of control, -87 % of control, -74 % of control.

`OC(CCl)CN1CC[N+]2(CC1)CC[N+]1(CCN(CC(O)CCl)CC1)CC2` (centres undefined) was tested, and the T/C (dose: 32.0 mg/kg/injection, schedule: Q01DX010 (sc), vehicle: water) was 96 % of control and 160 % of control, the T/C (dose: 128.0 mg/kg/injection, schedule: Q01DX010 (sc), vehicle: water) was 55 % of control, 94 % of control, 111 % of control and the T/C (dose: 256.0 mg/kg/injection, schedule: Q01DX010 (sc), vehicle: water) was 51 % of control, 90 % of control, 154 % of control.

For `CNC(=O)ON(C(C)=O)C(=O)NC`, the T/C (dose: 25.0 mg/kg/injection, schedule: Q01DX010 (sc), vehicle: water) was 35 % of control and 78 % of control, the T/C (dose: 25.0 mg/kg/injection, schedule: Q04DX003 (sc), vehicle: saline) was 102 % of control and 157 % of control and the T/C (dose: 50.0 mg/kg/injection, schedule: Q01DX010 (sc), vehicle: water) was 7 % of control and 118 % of control. The T/C [7] was 41 % of control and 77 % of control.

With `C1CC[N-]CC1.[Cl][Pt+2][Cl].[NH-]C1CC1` the T/C (dose: 25.0 mg/kg/injection, schedule: Q04DX003 (sc), vehicle: Klucel (hydroxypropylcellulose) (HPC)) was 87 % of control and 114 % of control.

With `O=C(O)C1(C(=O)O)CCC1.[NH2-].[NH2-].[Pt+2]` the T/C (dose: 25.0 mg/kg/injection, schedule: Q01DX010 (sc), vehicle: dextrose) was -55 % of control and -20 % of control.

With `CS(=O)(=O)OCCCNCCCOS(C)(=O)=O` the T/C [8] was 3 % of control and 41 % of control.

In the case of `CC1CN1C(=O)NCCCCCCNC(=O)N1CC1C` (centres undefined), the T/C (dose: 10.0 mg/kg/injection, schedule: Q04DX003 (sc), vehicle: Klucel (hydroxypropylcellulose) (HPC)) is reported as 8 % of control, 17 % of control, 65 % of control and the T/C (dose: 20.0 mg/kg/injection, schedule: Q04DX003 (sc), vehicle: Klucel (hydroxypropylcellulose) (HPC)) is reported as -64 % of control, 5 % of control, 11 % of control.

`O=NN(CCCl)C(=O)NC1[C@H](O)CCC[C@@H]1O` (some centres undefined) was tested, and the T/C (dose: 10.0 mg/kg/injection, schedule: Q04DX003 (sc), vehicle: saline) was -79 % of control, 10 % of control, 45 % of control and the T/C (dose: 20.0 mg/kg/injection, schedule: Q04DX003 (sc), vehicle: saline) was -85 % of control and 25 % of control.

In the case of `CC1=CC(=Nc2ccc(N(CCCl)CCCl)cc2)C=C(C)C1=O`, the T/C (dose: 300.0 mg/kg/injection, schedule: Q04DX003 (sc), vehicle: Klucel (hydroxypropylcellulose) (HPC)) is reported as -100 % of control, -52 % of control, 15 % of control, the T/C (dose: 600.0 mg/kg/injection, schedule: Q04DX003 (sc), vehicle: Klucel (hydroxypropylcellulose) (HPC)) is reported as -100 % of control, -49 % of control, 3 % of control and the T/C (dose: 1200.0 mg/kg/injection, schedule: Q04DX003 (sc), vehicle: Klucel (hydroxypropylcellulose) (HPC)) is reported as -100 % of control, -47 % of control, 1 % of control.
